B1: His6-tagged full-length SNAP-25b S187A (natural protein)
chain: not shown
B2: His6-tagged full-length SNAP-25b S187E (natural protein)
chain: not shown
B3: His6-tagged full-length SNAP-25b T138E (natural protein)
chain: not shown
B4: His6-tagged full-length SNAP-25b T138E/S187E double mutant (natural protein)
chain: not shown

The binders below were run against GST-syntaxin 1A ([…]) (assay: ELISA).

Row | Binder | binding result
1 | B1 | binds
2 | B2 | binds
3 | B3 | binds
4 | B4 | binds

Source: paper PMC2151612 (The Journal of General Physiology, 2007)
